Source: PubChem BioAssay AID1634 (National Center for Advancing Translational Sciences (NCATS), 2009)
The whole screen tested about 260,000 compounds, of which about 150 (0.058%) were called active. This list was built around the results that the source calls inconclusive (neither active nor inactive); the mix of calls is not that of the screen. Calls come from the whole dose curve; as a rule, active = well fitted inhibition curve with a large enough effect; inconclusive = small, poorly fitted or top-dose-only effect; inactive = no such curve, though single readings can be large or run the other way. Where the call is inconclusive, the potency comes from a doubtful curve fit.

Biological target: Pyruvate kinase PKM (Homo sapiens) (UniProt P14618)
Test: qHTS Assay for Inhibitors of Human Muscle isoform 2 Pyruvate Kinase; note: nearly all actives have a fitted effect of over 60% in size
Details: purified PKM2, ATP generation, Kinase-Glo luminescence; series mostly up to 57.5 µM
In short: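 Enzyme run at intermediate activity with final 0.1 mM ADP, 0.5 mM PEP (50 mM imidazole pH7.2, 50 mM KCl, 7 mM MgCl2), incubated 1 h at r.t. ATP formed read by Kinase-Glo luminescence, normalized to no-enzyme (full inhibition) and uninhibited wells.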
Potency is the fitted concentration of half-maximal effect; tags give direction and shape of the fitted curve.

Chain of UniProt P14618 (P14618 whole entry, looked up, canonical isoform): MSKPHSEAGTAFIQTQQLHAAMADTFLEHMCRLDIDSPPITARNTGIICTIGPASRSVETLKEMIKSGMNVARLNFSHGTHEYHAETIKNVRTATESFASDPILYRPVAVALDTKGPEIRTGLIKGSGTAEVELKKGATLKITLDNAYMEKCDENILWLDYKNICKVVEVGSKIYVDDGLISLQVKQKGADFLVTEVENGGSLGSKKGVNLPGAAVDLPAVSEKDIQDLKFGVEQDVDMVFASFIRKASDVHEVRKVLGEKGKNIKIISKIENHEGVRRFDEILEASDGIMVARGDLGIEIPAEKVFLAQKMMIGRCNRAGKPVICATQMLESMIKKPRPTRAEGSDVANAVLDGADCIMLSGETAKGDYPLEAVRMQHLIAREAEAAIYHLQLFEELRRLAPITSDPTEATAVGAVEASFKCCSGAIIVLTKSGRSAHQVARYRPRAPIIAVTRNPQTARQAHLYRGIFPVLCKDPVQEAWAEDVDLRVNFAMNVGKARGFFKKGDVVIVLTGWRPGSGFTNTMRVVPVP

Potency, active:
COc1cccc(/C=N/Nc2nccnc2Cl)c1O 14.1 µM
Cc1ccnc(NC(=O)c2ccc3c(c2)OCO3)c1 12.6 µM
COc1cc(/C=N/Nc2nn3cnnc3c3ccccc23)ccc1O 25.1 µM
COc1ccc(C2=CC(=O)C=CC2=O)cc1 17.8 µM

Potency, inconclusive:
Cc1ccc(N2Cc3ccccc3C2=O)cc1 17.8 µM [falling, partial curve]
CC1CCN(CCCNC(=O)c2ccc(Cn3c(=S)[nH]c4ccc(Br)cc4c3=O)cc2)CC1 6.31 µM [falling, single point]
CN1C(=O)C2(c3ccccc31)C1CCCC=C1C(C#N)=C(N)C2(C#N)C#N (configuration not stated) 1.41 µM [falling, full curve, poor fit]
Cc1cccc(OCC(=O)Nc2nccs2)c1C 10 µM [falling, partial curve]
O=C(NCc1csc(-c2cccs2)n1)C1CC1 39.8 µM [falling, single point]
CC(C)N1CCC(N2CCN(C/C=C/c3ccc(F)cc3)CC2CCO)CC1 (configuration not stated) 0.398 µM [falling, single point]
O=C(c1cnc2n(c1=O)CCS2)N1CCN(c2ccccc2Cl)CC1 0.794 µM [falling, single point]
S=c1[nH]nc(Nc2ccccc2Cl)s1 31.6 µM [falling, partial curve]
Cc1ccnc(N/N=C/c2ccccc2)n1 15.8 µM [falling, partial curve]
CC(=O)c1ccc(S(=O)(=O)Nc2ccc(C(=O)NCC(c3ccccc3)N(C)C)cc2)cc1 (configuration not stated) 39.8 µM [falling, single point]
Nc1cc2sc(-c3ccc(C(=O)O)cc3)nc2cc1Cl 17.8 µM [falling, partial curve]
COCCNC(=O)C(c1ccncc1)N(C(=O)c1sc(C)nc1C)c1cccc(C)c1 (configuration not stated) 39.8 µM [falling, single point]
O=C(O)c1cc(O)c2c(c1)C(=O)c1cc(O)cc(O)c1C2=O 17.8 µM [falling, partial curve]
NNc1nc2ccc(F)cc2s1 35.5 µM [falling, single point]
O=[N+]([O-])/C(=C\Nc1ccccc1)S(=O)(=O)c1ccccc1 35.5 µM [falling, single point]
CCc1ccccc1NC(=O)Nc1ccc(F)cc1F 31.6 µM [falling, single point]
CCOc1cc(N2CCOCC2)c(OCC)cc1NC(=O)c1ccc2ccccc2n1 28.2 µM [falling, single point]
O=C(c1ccc(Br)o1)N1CCc2ccccc21 14.1 µM [falling, partial curve]
O=Cc1ccc(-c2nc3ccccc3s2)o1 22.4 µM [falling, single point]
Cc1ccc(/C(N)=N/OC(=O)c2ccco2)cc1 28.2 µM [falling, single point]
Cc1ccc(CSc2nc3ccncc3[nH]2)cc1 22.4 µM [falling, partial curve]
COC(=O)COc1ccc(C2NC(=O)NC(C)=C2C(=O)NCc2ccccc2)cc1OC (configuration not stated) 5.62 µM [falling, single point]
Cc1nc(SCC(=O)c2ccc(F)cc2)n[nH]1 39.8 µM [falling, single point]
CC(C)C(NC(=O)c1ccccc1)C(=O)NCCc1ccccc1 (configuration not stated) 3.98 µM [falling, single point]
O=C(Nc1ccccc1C(=O)O)c1cccc(C(=O)Nc2ccccc2C(=O)O)c1 12.6 µM [falling, partial curve]
CCCC(=O)Nc1cnc(NC(=O)c2cccc(F)c2)cc1C 39.8 µM [falling, single point]
CC1CCc2c(sc(NC(=O)C3CCCO3)c2C#N)C1 (configuration not stated) 3.98 µM [falling, single point]
Cc1[nH]n(-c2ccc([N+](=O)[O-])cc2)c(=O)c1C=NCCN1CCN(C(=O)c2ccccc2)CC1 14.1 µM [falling, partial curve]
COc1ccc(C(=O)Nc2ccncc2)cc1OC 20 µM [falling, partial curve]
CCOC(=O)c1c(C)noc1-c1ccco1 28.2 µM [falling, single point]
Cc1ccc(NC(=O)c2ccco2)cc1C 35.5 µM [falling, partial curve]
COC(=O)c1ccc(NC(=O)C(=O)c2cccn2C)cc1 15.8 µM [falling, partial curve]
FC(F)(F)c1nc2cc3nc4ccccc4[nH]c3cc2n1 15.8 µM [falling, partial curve]
Nc1ccc(C(=O)Nc2ccccc2C(=O)O)cc1 22.4 µM [falling, single point]
O=C(O)C1Cc2ccccc2CN1S(=O)(=O)c1ccc(Cl)cc1 (configuration not stated) 39.8 µM [falling, single point]
c1ccc(-c2n[nH]c(-c3ccccn3)n2)nc1 20 µM [falling, partial curve]
CCCn1c(=O)[nH]c(=O)c2c1nc(-c1cccs1)n2CCOC 35.5 µM [falling, single point]
CC(=O)NNC(=O)c1sc(=S)n2c1[nH]c(=O)c1sccc12 31.6 µM [falling, single point]
O=C(Nc1ccccc1)c1ccc2c(c1)OCO2 14.1 µM [falling, partial curve]
N/C(=N\OC(=O)c1ccc2c(c1)OCO2)c1cccnc1 11.2 µM [falling, partial curve]
Cc1nc(-c2ccc(C(=O)N3CCCC3)cc2)cs1 14.1 µM [falling, partial curve]
Cc1cc(N2CCOCC2)ccc1/C=C1/SC(=O)NC1=O 20 µM [falling, partial curve]
CC(=O)Oc1ccc(OC(C)=O)c(SCCCCCN2CCOCC2)c1 39.8 µM [falling, single point]
Cc1cccc(-c2n[nH]c(=S)n2Cc2ccccc2)c1 39.8 µM [falling, single point]
O=C(/C=C/c1ccccc1)c1ccccn1 22.4 µM [falling, partial curve]
COc1ccc(-c2nc(-c3cccs3)no2)cc1 6.31 µM [falling, partial curve]
O=C(CCCN1C(=O)c2ccccc2C1=O)Nc1ccc2c(c1)OCCO2 3.98 µM [falling, full curve, poor fit]
c1ccc(-c2ccc(-c3nc(-c4ccccn4)no3)cc2)cc1 31.6 µM [falling, single point]
C=CCNC(=O)c1ccc(OC)cc1 35.5 µM [falling, single point]
N/C(=N\OC(=O)c1cccc(Cl)c1)c1ccccn1 35.5 µM [falling, single point]

Potency, inactive:
Cc1ccccc1NC(=O)C1CCCN1/C=C/C(=O)C(F)(F)F (configuration not stated)
O=C(COC(=O)C1CCN(S(=O)(=O)c2ccc3c(c2)OCCO3)CC1)Nc1cc(C(F)(F)F)ccc1Cl
COc1cccc(CNC(=O)CCC2CCCN(C(=O)c3cc(C4CC4)[nH]n3)C2)c1 (configuration not stated)
CCc1ccc(C2=NNC(=Nc3c(C)n(C)n(-c4ccccc4)c3=O)SC2)cc1
COc1cccc(CNc2nc3ccccc3n2C)c1O
COc1ccc(S(=O)(=O)N2CCN(C(=O)NCc3ccccc3)CC2)cc1
CCOC(=O)C(CO)(NC(C)=O)C(=O)OCC
COC(=O)[C@@]1(Cc2ccc(F)cc2)[C@H]2c3cc(C(=O)N4CCCC4)n(Cc4ccc(C)o4)c3C[C@H]2CN1C(=O)c1ccccc1
CCC(C)[C@@H](C(=O)Nc1ccc2c(c1)OCO2)N1Cc2ccccc2C1=O (some centres not stated)
N#C/C(=C\Nc1ccc(Cl)cc1)S(=O)(=O)c1ccccn1
CCOC(=O)C1=C(Cc2ccc(C)cc2)C(=O)c2ccccc2C1=O
Cc1nc(SCc2ccccc2)c2ccsc2n1
COc1ccc(S(=O)(=O)N2CCN(S(=O)(=O)c3ccc4c(c3)OCCO4)CC2)cc1C
Cc1ccc(-c2nnn(CC(=O)N(CCN3CCOCC3)C(C(=O)NC3CCCC3)c3ccncc3)n2)o1 (configuration not stated)
COc1cc(NC(=O)C2CCN(S(=O)(=O)c3ccc(Cl)cc3)CC2)ccc1-n1cnnn1
O=S(=O)(Nc1ccc(Cl)cc1)c1ccc2c(c1)CCO2
Cc1cc2sc(C(=O)O)c(C)c2s1
Cc1ccc2nc(C)cc(N/N=C/c3ccc(F)cc3)c2c1
CCn1ccnc1CN(C)Cc1cn(-c2cc(C)ccc2C)nc1-c1ccccc1
COc1ccc(S(=O)(=O)Nc2ccc(-n3cccc3)cc2)cc1
O=C(CSc1nnc(-c2ccc(O)cc2)o1)Nc1cccc(O)c1
C/C(=C\c1ccc(C)o1)C(=O)c1c(C)cc(C)[nH]c1=O
Nc1ccnn1Cc1cccnc1
